# The campaign covered roughly 110,000 compounds. About 230 (0.21%) showed an effect of 50% or more. The list shows a part of the results.
# Target: DPAP1 (Plasmodium falciparum, UniProt Q8IIJ9)
# Assay: primary screen, percent inhibition; read by cleavage of a fluorogenic dipeptide substrate; higher = more effect of the substance
# Design: species or system P. falciparum D10 trophozoite lysates; single well
# 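Note: 30 min substrate incubation versus DMSO and 10 µM JCP410 controls.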
# Chain of DPAP1 (Q8IIJ9 whole entry, looked up): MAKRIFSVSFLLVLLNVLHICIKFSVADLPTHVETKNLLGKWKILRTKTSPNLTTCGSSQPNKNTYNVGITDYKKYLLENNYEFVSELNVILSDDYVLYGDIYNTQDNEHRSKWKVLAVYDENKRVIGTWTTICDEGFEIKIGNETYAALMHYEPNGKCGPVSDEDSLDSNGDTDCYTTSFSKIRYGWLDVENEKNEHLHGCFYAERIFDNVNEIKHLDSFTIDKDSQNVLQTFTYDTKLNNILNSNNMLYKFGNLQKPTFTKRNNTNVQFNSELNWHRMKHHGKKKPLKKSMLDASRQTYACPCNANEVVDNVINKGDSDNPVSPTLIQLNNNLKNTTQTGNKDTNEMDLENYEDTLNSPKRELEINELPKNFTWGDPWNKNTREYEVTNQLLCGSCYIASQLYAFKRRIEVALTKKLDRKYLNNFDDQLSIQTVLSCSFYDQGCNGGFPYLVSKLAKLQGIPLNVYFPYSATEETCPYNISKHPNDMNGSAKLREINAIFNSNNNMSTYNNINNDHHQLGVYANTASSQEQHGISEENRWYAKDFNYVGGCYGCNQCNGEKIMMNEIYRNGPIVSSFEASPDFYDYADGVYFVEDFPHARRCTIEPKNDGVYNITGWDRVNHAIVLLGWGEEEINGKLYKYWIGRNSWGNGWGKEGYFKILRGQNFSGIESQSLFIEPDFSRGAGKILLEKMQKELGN
row,Structure (SMILES),% Inhibition @ 10 uM [%]
1,Cc1ccc2c(c1)C=CC(C#N)N2C(=O)c1ccccc1 (stereo not shown),6.98
2,CCCn1c2ccccc2c2cnn(CC(=O)NCc3ccc(CN4CCCCC4CC)o3)c(=O)c21 (stereo not shown),6.56
3,COc1cccc(C2C3=C(O)CC(C)(C)CC3=NC(C)=C2C(=O)Nc2ccccc2C(F)(F)F)c1 (stereo not shown),2.38
4,c1ccc(Cn2ncc3ccccc32)cc1,-3.38
5,Cc1cccc(C(=O)Nc2ccc(C#N)cc2)c1,0.605
6,COc1ccc(CN2COc3c(Cl)cc4c(C)c(C)c(=O)oc4c3C2)cc1,-0.808
7,CSc1ccc(CCNC(=O)CCc2nnc3ccc(N4CCC(C)CC4)nn23)cc1,-5.85
8,Cc1cc2c(=O)oc(-c3cccc(Br)c3)nc2s1,-3.28
9,NC(=O)NC(c1ccc(Cl)cc1)c1ccccc1Cl (stereo not shown),1.84
10,O=S(=O)(Nc1cc(Cl)cc(Cl)c1)c1cc(Cl)ccc1Cl,-4.4
11,Cc1c(C(=O)N2CCCC(C)C2)sc2ncn(CC(=O)N3CC(C)CC(C)C3)c(=O)c12 (stereo not shown),-0.458
12,COc1ccc(-c2cc(C(F)(F)F)nc(SCC(=O)N(C)Cc3cn(C)nc3C)n2)cc1OC,47.7
13,O=C(NCCc1c[nH]c2ccccc12)C(c1ccccc1)N1Cc2ccccc2C1=O (stereo not shown),-2.13
14,Cc1nn(CC(=O)N2CCc3ccccc3C2)c(=O)c2nn(-c3ccccc3)c(C)c12,0.931
15,CCN1CCN(Cc2nc3c(c(=O)n(C)c(=O)n3C)n2Cc2ccccc2)CC1,1.23
16,O=C(Nc1ccc([N+](=O)[O-])cc1)c1cccc(S(=O)(=O)N2CCOCC2)c1,-5.41
17,NC(c1ccccc1)P(=O)(O)C(N)c1ccccc1 (stereo not shown),-2.18
18,N#CCNC(=O)[C@H](CCc1ccccc1)NC(=O)c1ccccc1,-1.83
19,CCS(=O)(=O)C1=NSC2=NC(=O)/C(=C\c3cc(C)n(-c4ccccc4OC)c3C)C(=N)N21,-1.58
20,Cc1ccc2[nH]c3c(c2c1)CCCC3NCc1ccc(Cl)cc1 (stereo not shown),4.42
21,Cc1nc(-c2ccccc2)nc2[nH]c(-c3ccccc3)cc12,4.63
22,Cc1ccccc1OCCCCCCc1c(C)n[nH]c1C,-2.12

row,Structure (SMILES),% Inhibition @ 10 uM [%]
1,CCOc1cc(CNCc2c(C(=O)O)n(C)c3cc(OC)ccc23)ccc1OC,4.67
2,CN1C(=O)S/C(=C/c2ccc(-c3ccc(F)cc3)o2)C1=O,-4.7
3,CC(C)OCCCNC(=O)CCc1nnc2n(Cc3ccccc3Cl)c(=O)c3ccccc3n12,-0.692
4,CC1CN(Cc2ccccc2F)CC(C)O1 (stereo not shown),-1.41
5,COc1ccccc1-c1cc(C(=O)Nc2cc(C)nn2-c2ccccc2)no1,23.6
6,Cc1ccc2c(c1)/C(=C1/SC(=S)NC1=O)C(=O)N2,0.878
7,Cc1ccc2c(c1Br)C1(C(=O)N2)C(C#N)=C(N)OC2=C1C(=O)CC(c1ccccc1)C2 (stereo not shown),19.7
8,O=C(NCc1ccc2c(c1)OCO2)Nc1ccccc1,-3.53
9,CN(C)C(=O)C12CCC(C)(c3nc4cc(Cl)c(Cl)cc4nc31)C2(C)C (stereo not shown),-2.98
10,Cc1nc(-c2ccc(S(=O)(=O)N3CCCC3)cc2)cs1,-1.43
11,O=C(CSc1nc(O)c2cnn(-c3ccc(Cl)cc3)c2n1)N1CCOCC1,-3.35
12,COc1cccc(N(C(=O)c2ccccc2)C2CC(C)N(C(C)=O)c3ccccc32)c1 (stereo not shown),-1.44
13,CCN(Cc1ccccc1)C(=O)c1c(Cl)nc(C)c(Cl)c1C,-4.35
14,Cc1ccc(S(N)(=O)=O)cc1NC(=O)C1CC2CCC1C2 (stereo not shown),-1.96
15,CCN(CCO)Cc1csc2ccc(C(C)(C)C)cc12,0.408
16,CN1CCN(CC(O)Cn2cc(/C=C/C(=O)c3ccc(Br)cc3)c3ccccc32)CC1 (stereo not shown),1.64
17,CCC1CCCCN1C1CC(=O)N(c2ccccc2)C1=O (stereo not shown),2.38
18,COc1ccc(NCC(=O)Nc2ccc(F)cc2)cc1,-4.59
19,CC(NC(=O)c1cccc(NC(=O)c2ccccc2)c1)c1ccccc1 (stereo not shown),5.14
20,Cc1ccc(OC(C)C(=O)Nc2cccc3ccccc23)cc1 (stereo not shown),5.69
21,O=C1C2C3C=CC(C3)C2C(=O)N1c1ccc(N2C(=O)C3C4CCC(C4)C3C2=O)cc1 (stereo not shown),0.674
22,Cc1ccn(-c2ccccc2)n1,-4.74

row,Structure (SMILES),% Inhibition @ 10 uM [%]
1,CCOC(=O)C1=C(CC)OC(N)=C(C#N)C1c1ccccc1 (stereo not shown),-8.76
2,COc1ccc(OC)c2c(C)cc(C)nc12,3.32
3,CCn1c2ccccc2c2cc(NC(=O)c3ccc4ccccc4c3)ccc21,-1.69
4,Cc1ccc(C)c(CN2CCN(c3ccccc3F)CC2)c1,3.16
5,Cc1ccc(CNC(=O)C(Cc2ccccc2)NS(=O)(=O)c2cccs2)cc1 (stereo not shown),-2.49
6,Cc1ccc2oc(=O)c3cc(C(=O)N4CCCC(C)C4)sc3c2c1 (stereo not shown),-1.84
7,O=C(Nc1nc(-c2ccccc2)cc(C(F)(F)F)n1)NS(=O)(=O)Oc1ccccc1Cl,1.03
8,CCC1CCCCN1CCCNC(=O)Cn1nc(C)n2c(cc3c(OC)cccc32)c1=O (stereo not shown),4.65
9,O=C(O)C1CCCCC1C(=O)NC1CCCC1 (stereo not shown),0.431
10,Nc1nc(Cc2ccsc2)nc2sc3c(c12)CCCC3,49.8
11,COc1ccc(OC)c(/C=C2\C(=O)NC(=O)N(C)C2=O)c1,5.12
12,CCCCc1ccc(NC(=O)c2ccoc2C)cc1,1.57
13,CCc1n(CC(O)COCc2ccccc2)c2ccccc2[n+]1C (stereo not shown),1.31
14,O=C(c1ccc(Br)cc1)N1CCN(c2ccccc2)CC1,-3.85
15,Cc1cccc(C)c1NC(=O)CN1C(=O)S/C(=C\c2cccn2C)C1=O,-16.7
16,COc1cc2c(cc1OC)C(C(=O)NC1CCCCC1)C(c1ccccc1F)N(C)C2=O (stereo not shown),4.79
17,CCOc1ccc(-c2csc(/C(C#N)=C/c3ccccc3OCC)n2)cc1,0.912
18,c1ccc2c(OCCN3CCCC3)cccc2c1,-1.15
19,COc1ccccc1C(=O)C1C(=O)NC2(C)CC1c1cc(Cl)ccc1O2 (stereo not shown),0.907
20,CCOC(=O)c1c(NC(=O)C2CC=CCC2C(=O)O)sc(C)c1-c1cc(C)ccc1C (stereo not shown),2.32
